In all, about 44,000 compounds went through this assay and about 340 (0.77%) were called active. Another 5% or so got no clear call; they are omitted. Calls come from the whole dose curve; as a rule, active = well fitted inhibition curve with a large enough effect; inconclusive = small, poorly fitted or top-dose-only effect; inactive = flat fitted curve, though single readings scatter. Some of the results follow.
Test: Acumen qHTS Assay for Inhibitors of the mTORC1 Signaling Pathway in MEF (Tsc2-/-, p53-/-) Cells: Sytravon;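 note: plate controls were DMSO for no effect and rapamycin for full effect; nearly all actives have a fitted effect of over 50% in size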
Conditions: phospho-rpS6 immunofluorescence/PI, 24 h; series mostly up to 38.3 µM; activity change, negative = inhibition: at the top concentration
Procedure, shortened: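 Immunofluorescence of rpS6 phosphorylation in Tsc2-/-, p53-/- MEFs after 24 h compound exposure, normalized to propidium iodide signal. Activity is expressed as % positive cells, thresholded with 7.5 nM rapamycin.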

Row | SMILES | activity change, negative = inhibition
1 | O=C1SC(Nc2ccc(Cl)cc2)C(=O)N1Cc1ccccc1 (stereo not drawn) | inactive: 14.1%
2 | Cc1c(Cl)cccc1Nc1nc(N)nc(CSc2nc3ccccc3s2)n1 | inactive: 7.07%
3 | Cc1ccc(NC(=O)CCCn2c3ccccc3c(=O)c3cc(C)ccc32)c(Br)c1 | inactive: 9.22%
4 | CC1CCN(S(=O)(=O)c2ccc3c(c2)N(CC(=O)NCCc2ccc(Cl)cc2)C(=O)CO3)CC1 | inactive: 7.06%
5 | CCOC(=O)c1c(C)[nH]c(C)c1S(=O)(=O)N1CCC(C(=O)N2CCN(c3cc(C)ccc3C)CC2)CC1 | inactive: -10.7%
6 | Cc1ccc2oc(C(=O)Nc3ccc(S(=O)(=O)Nc4onc(C)c4C)cc3)cc(=O)c2c1 | inactive: 6.61%
7 | O=C1CS(=O)(=O)C2(C(=O)N(Cc3ccc(F)cc3)c3ccccc32)N1c1cccc(C(F)(F)F)c1 (stereo not drawn) | inactive: 0.88%
8 | O=C(CSc1ncc(S(=O)(=O)c2ccc(Cl)cc2)c(=O)[nH]1)Nc1ccc2c(c1)OCCO2 | inactive: -4.3%
9 | CCCCNC(=O)C1=CC(c2ccc3c(c2)OCO3)=NS(=O)(=O)N1C | inactive: 0.406%
10 | CCOc1ccc(N(C)C(=O)C2CCN(S(=O)(=O)c3ccc4c(c3)CCCN4C(C)=O)CC2)cc1 | inactive: -4.4%
11 | CCC(Sc1nc2ccncc2[nH]1)C(=O)Nc1ccc(F)cc1 (stereo not drawn) | inactive: 2.76%
12 | O=S(=O)(c1ccccc1)c1nnn2c1nc(Nc1ccccc1)c1cc(Cl)ccc12 | inactive: -0.789%
13 | Cc1ccc(Cl)cc1N1CCN(C(=O)Cn2ncc3c([nH]c4ccccc43)c2=O)CC1 | inactive: 3.85%
14 | COc1cccc(-n2c(=O)c3sc4ccccc4c3n(CC(=O)Nc3ccccc3OC)c2=O)c1 | inactive: -7.59%
15 | Cc1ccc(-n2nc(CO)c(C(=O)NCCc3ccccc3)n2)cc1 | inactive: -0.223%
16 | O=C(CSc1nnc(-c2ccc(Cl)cc2)o1)N1CCc2ccccc21 | inactive: -11.5%
17 | Cc1ccc(Cn2cnc3c(oc4ccccc43)c2=O)cc1 | inactive: 3.55%
18 | Cc1cc(C)cc(NC(=O)C(NS(=O)(=O)c2cccc3nsnc23)c2ccccc2)c1 (stereo not drawn) | inactive: 4.88%
19 | CCOC(=O)N1CCN(C(=O)c2ccc3c(c2)N(Cc2cc(C)ccc2C)C(=O)c2ccccc2S3=O)CC1 (stereo not drawn) | inactive: -7.68%
20 | COc1ccc(CCNC(=O)CCc2cn(Cc3ccc(C)cc3)c3ccccc23)cc1OC | inactive: -11.6%
21 | CCCCOc1nnc(-c2ccc(OCC)cc2)c2ccccc12 | inactive: -0.284%
22 | CCCCn1c2ccccc2c2nnc(SCC(=O)Nc3ccc(NC(C)=O)cc3)nc21 | inactive: -3.29%
23 | O=C(Nc1onc2c1CCCC2)c1ccc(Cl)cc1 | inactive: -9.66%
24 | CCc1nc2nc(C)cc(Nc3ccc(Br)cc3F)n2n1 | inactive: 3.62%

Row | SMILES | activity change, negative = inhibition
25 | Cc1ccccc1NC(=O)c1c2c(nc3ccccc13)C(=O)N(C1CCCCC1)C2 | inactive: -16%
26 | Cc1ccc2c(=O)c(C(=O)c3ccc(F)cc3)cn(CC(=O)NC3CCCCC3)c2n1 | inactive: -7.02%
27 | CCOc1ccc(CNC(=O)c2cc3c(=O)n(Cc4cccs4)ccc3nc2C)cc1 | inactive: -4.81%
28 | CC(=O)Nc1ccc(S(=O)(=O)Nc2ccc(-c3cn4c(C)csc4n3)cc2)cc1 | inactive: 1.72%
29 | COC(=O)c1cc(S(=O)(=O)N2CCN(c3cccc(C)c3)C(C)C2)c[nH]1 (stereo not drawn) | inactive: -1.21%
30 | CCc1c(C)sc(NC(=O)c2cc(-c3ccc(OC)cc3)on2)c1C#N | inactive: 6.64%
31 | COc1ccc2c(Sc3ccccc3)c(C(=O)NCc3ccc(OC(C)C)cc3)[nH]c2c1 | inactive: -0.554%
32 | COc1ccc(-c2nc3ccc(NS(=O)(=O)c4ccccc4)cc3o2)cc1 | inactive: -0.562%
33 | COc1cccc(CNC(=O)c2cc3n(n2)CCCN(Cc2ccc(C)cc2)C3=O)c1OC | inactive: 0%
34 | Cc1cccc(-c2nnc3n(CCc4ccccc4)c(=O)c4ccccc4n23)c1 | inactive: -2.37%
35 | CCOc1ccc(-n2c(SCC(=O)NCc3ccco3)nc3c([nH]c4ccccc43)c2=O)cc1 | inactive: -12.5%
36 | Cc1ccc(NC(=O)c2sc(-n3nc(C)c(Cc4ccc(Cl)cc4)c3C)nc2C)cc1 | inactive: -2.79%
37 | Cc1ccc(-n2c3nc(=O)[nH]c(=O)c-3cc3c(Cl)cccc32)cc1 | inactive: -3.31%
38 | Cc1ccc(Cn2ccnc2SCC(=O)Nc2ccc3c(c2)OCO3)cc1 | inactive: -14.3%
39 | Cc1ccc(C)c(NC(=O)N2CCN(C)c3ncccc32)c1 | inactive: 5.67%
40 | CCOc1ccc(NC(=O)c2c(NC(=O)Cc3ccccc3)sc3c2CCCC3)cc1 | inactive: -20.9%
41 | CCN(Cc1ccccc1)C(=O)Cn1c(=O)n(-c2ccc(OC)cc2OC)c(=O)c2c(C)c(C)sc21 | inactive: -1.6%
42 | CCOc1ccc(CNC(=O)c2ccc(-c3nc(CSc4ccc(C)cc4)c(C)o3)cc2)cc1 | inactive: 2.14%
43 | COc1ccc(Cl)cc1NC(=O)Cn1c(=O)n(Cc2ccco2)c(=O)c2ccc(C(=O)NC3CCCC3)cc21 | inactive: 2.67%
44 | CCCCOc1ccc(C(C)NC(=O)c2cccc(Nc3nc4ccccc4n4nnnc34)c2)cc1 (stereo not drawn) | inactive: 1.58%
45 | CCOc1ccc(CCNC(=O)CSc2n[nH]c(-c3ccccc3)n2)cc1OCC | inactive: -11%
46 | Cc1c(CC(=O)N2CCCCC2)c(=O)oc2c(C)c3occ(C(C)(C)C)c3cc12 | inactive: 3.84%
47 | Cc1ccc(CN2CCSc3ccc(C(=O)NCCc4ccccc4)cc32)cc1 | inactive: -2.25%
48 | COc1ccc(Cl)cc1NC(=O)C1CCN(c2nnc(C)c3c(C)n(-c4ccccc4)nc23)CC1 | inactive: -0.507%
